We go through 24 compounds from PMC4336329 (PLoS ONE, 2015).

Screen size: about 310,000 compounds; about 14,000 (4.5%) showed an effect of 50% or more. The effect is printed as a negative number. Some of the results follow.
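Note: peak tail current of the secondary pulse compared with the same well before compound.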

The target of this experiment is human ether-à-go-go-related gene (hERG) potassium channel (human, UniProt Q12809). The experiment in a line: primary screen, population patch clamp on CHO cells stably expressing hERG.
Sequence of human ether-à-go-go-related gene (hERG) potassium channel (Q12809 whole entry, looked up): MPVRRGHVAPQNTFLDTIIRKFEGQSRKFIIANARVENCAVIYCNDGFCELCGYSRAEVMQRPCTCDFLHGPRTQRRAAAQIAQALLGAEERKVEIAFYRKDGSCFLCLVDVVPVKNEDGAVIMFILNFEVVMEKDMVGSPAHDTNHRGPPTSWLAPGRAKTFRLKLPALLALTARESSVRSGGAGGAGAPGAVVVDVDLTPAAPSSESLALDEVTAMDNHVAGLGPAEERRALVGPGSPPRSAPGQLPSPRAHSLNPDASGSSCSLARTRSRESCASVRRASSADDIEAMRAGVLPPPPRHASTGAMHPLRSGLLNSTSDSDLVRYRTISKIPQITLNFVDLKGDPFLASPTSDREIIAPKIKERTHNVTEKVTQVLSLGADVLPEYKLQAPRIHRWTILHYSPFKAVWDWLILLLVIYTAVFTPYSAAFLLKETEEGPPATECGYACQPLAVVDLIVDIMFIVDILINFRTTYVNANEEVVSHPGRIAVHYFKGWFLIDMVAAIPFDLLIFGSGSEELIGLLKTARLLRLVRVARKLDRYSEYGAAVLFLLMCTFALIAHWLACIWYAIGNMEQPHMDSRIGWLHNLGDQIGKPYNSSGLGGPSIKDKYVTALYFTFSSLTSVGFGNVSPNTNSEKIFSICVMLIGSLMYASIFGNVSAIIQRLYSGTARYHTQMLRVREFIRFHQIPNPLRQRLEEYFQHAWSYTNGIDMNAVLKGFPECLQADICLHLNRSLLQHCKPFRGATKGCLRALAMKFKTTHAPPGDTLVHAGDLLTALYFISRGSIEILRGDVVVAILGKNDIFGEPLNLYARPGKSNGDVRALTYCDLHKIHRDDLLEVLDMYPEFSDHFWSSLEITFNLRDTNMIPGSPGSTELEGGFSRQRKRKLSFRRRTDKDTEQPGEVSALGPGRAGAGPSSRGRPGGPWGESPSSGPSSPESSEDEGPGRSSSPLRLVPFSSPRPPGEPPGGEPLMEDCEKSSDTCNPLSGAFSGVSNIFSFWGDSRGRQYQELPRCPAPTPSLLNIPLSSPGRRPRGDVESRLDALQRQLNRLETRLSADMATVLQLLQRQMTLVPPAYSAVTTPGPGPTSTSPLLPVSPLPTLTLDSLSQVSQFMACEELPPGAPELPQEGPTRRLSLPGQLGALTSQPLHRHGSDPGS
With `CCOC(=O)CSc1nc2sc3c(c2c(=O)n1C1CCCCC1)CCN(C)C3`, the “hERG current change (%, negative = inhibition) at 10uM” value is -12.5%.
In the case of `C=CCn1c(CCSCc2ccc(OC)c(C)c2)n[nH]c1=S` it was 9.36%; in that of `O=C(NC(=S)Nc1ccc(F)c([N+](=O)[O-])c1)c1ccccc1F`, 16.5%; in that of `CCN(C(=O)CCS(=O)(=O)c1ccc(Br)cc1)c1ccc2c(c1)OCO2`, -43.8%.
On to `CN(CC(=O)Nc1ccccc1C(F)(F)F)C(=O)c1ccc2c(=O)n3c(nc2c1)CCC3`, for which the “hERG current change (%, negative = inhibition) at 10uM” value is -8.67%.
Next, `Cc1ccc(CS(=O)(=O)c2cn(CC(=O)N3CCOCC3)c3ccccc23)cc1`: 4.8%.
Next, `CC(C)Oc1ccc(C(=O)OCC(=O)NC(=O)NC2CCCC2)cc1`: -1.95%; `CC1CCCN(C(=O)COC(=O)CNC(=O)c2sc3ccccc3c2Cl)C1` (stereo not drawn): -2.36%; `COc1ccc2c(n1)Sc1nc3ccccc3nc1N2`: 16.9%.
For `NC(=O)COC(=O)c1sc2ccccc2c1Cl`, the “hERG current change (%, negative = inhibition) at 10uM” value is 24.3%.
On to `CC(=O)c1c(C)[nH]c(C(=O)OCC(=O)Nc2ccccc2Cl)c1C`, for which the “hERG current change (%, negative = inhibition) at 10uM” value was -0.866%.
In the case of `CN(C)CCNC(=O)CNC(=S)N(Cc1ccccc1)Cc1cccnc1` it was 0.623%; in that of `CCN1C(=O)CC(c2ccc(OC(C)C)cc2)C1=O` (stereo not drawn), 16.9%; in that of `CCC(C)c1ccc(NC(=O)C2CCCN(c3ncccn3)C2)cc1` (stereo not drawn), -7.55%.
As to `O=C(CN1CC(=O)Oc2ccccc21)NCc1ccco1`, the “hERG current change (%, negative = inhibition) at 10uM” value is given as 15.2%.
Next, `CC(NC(=O)CN1C(=O)NC2(CCc3ccccc32)C1=O)c1ccccc1` (stereo not drawn): 2.81%; `Cc1ccc(-n2nc3c(=O)n(CCCC(=O)N4CCC(C)CC4)nc(C)c3c2C)cc1`: -30.1%; `Cc1cc(C)cc(OCC(=O)OCC(=O)Nc2cc(C)nn2-c2ccccc2)c1`: 17.3%.
Next, `OCCN1CCN(c2nnc(-c3ccccc3)c3ccccc23)CC1`: -23.5%; `O=C(NCc1ccncc1)C1CCCN(S(=O)(=O)c2cc(Cl)ccc2Cl)C1` (stereo not drawn): -61.2%.
Turning to `COc1ccccc1-c1sc2ccccc2c1-c1ccc(C(C)=O)cc1`, the “hERG current change (%, negative = inhibition) at 10uM” value came out at 4.86%.
In the case of `CC(=O)c1ccc(OCCCC(=O)NCCc2ccc(C(F)(F)F)cc2)cc1` it was 8.51%.
In the case of `COc1ccc(OC)c(NC(=O)CCNC(=O)Cn2cnc3ccccc3c2=O)c1` it was 3.58%; in that of `Cc1ccnc(SCC(=O)Nc2sc3c(c2C#N)CCCC3)n1`, 5.57%.
